First the molecules themselves.
B1: OR4K15 (parent)
chain: GUUAACGGUCAUAGGCCAUGGAAACUAGGAGCACCAUUUCGCUGCCAGUGAAGAAAUGAACAAAGAAAAUCUGGGCCAGGCAGGCAUCAAAAGAAAUAGUCUUGCGCUCAACCAGAAAGUCUGUAAUCAUUUUAAGGGUA

Read counts are not given, so values of variants with three or more changes are uncertain.

In this data set the parent is B1. The data set is described as follows: self-cleavage, relative activity (ratio to wild type); higher = more cleavage; in vitro, sequencing; the parent is a self-cleaving ribozyme.
U49C A55G U103C: the self-cleavage came to 0.24.

In the case of U49C A68G A116G, the self-cleavage was 0.52.

As to U49C A62G A92C, the self-cleavage was determined as 1.48.

On to G50U A55G G106A A117G, for which the self-cleavage worked out at 0.01.

Regarding U49A U57C U108C U131C, the self-cleavage was 0.01.

For the variant C46A U72C A126U, the self-cleavage worked out at 0.32.

As for U49A G50A A59G A82G A86G A95G, the self-cleavage turned out to be 0.3.

U49C A59G A92G: the self-cleavage is 0.52.

U49C A52G A129U: the self-cleavage turned out to be 0.83.

With A47U A52G A67G A94G, the self-cleavage turned out to be 0.65.

For the variant A47G U87G U108C, the self-cleavage stood at 0.01.

For U49G A56G A59G A67G A96G U102C U120C, the self-cleavage was 0.78.

On to G48A A59G A110G U127A, for which the self-cleavage is 0.21.

On to U49A U70G A110U A126U, for which the self-cleavage came out at 0.4.

On to A47U U57C A69G A94G A110C, for which the self-cleavage turned out to be 0.04.

U49C A56G A114G: the self-cleavage came to 0.16.

On to U49C G104A A117G U124G, for which the self-cleavage was found to be 0.02.

In the case of A47G U49C A60G A63G C85U A98G, the self-cleavage was 0.15.

Consider U43C G79A U97G, for which the self-cleavage amounted to 0.12.

For the variant U49A A55G A63G A90G, the self-cleavage is 0.73.

For U49C G73U U108A A110G C113U, the self-cleavage is 0.02.

On to U49C A52G G106U U131A, for which the self-cleavage came to 0.03.

Consider U49A A52U A92G A94G, for which the self-cleavage is 1.58.

Regarding U43C A89U U100C U120C, the self-cleavage came out at 2.87.

On to C45U A68G U131C, for which the self-cleavage was 1.08.

A47G U57C U102A U131C: the self-cleavage is 0.7.

In the case of A47G A52U U87A U100C, the self-cleavage stood at 1.55.

For the variant A47G A51G A69G, the self-cleavage was 0.84.

As to U49A A96G U108C, the self-cleavage was determined as 0.01.

For the variant C46U U72A A92G A117G, the self-cleavage was 0.04.

Take A47G A51G A55G U120C U130A: the self-cleavage was found to be 0.4.

With U49A U57C U70C, the self-cleavage is 0.52.

For U49A U108C U127C G136U, the self-cleavage was found to be 0.

Consider A47G A60G U100A, for which the self-cleavage was 0.29.

Turning to C45U A82G A91G A96G, the self-cleavage is 0.26.

For the variant U49C A96G U97C, the self-cleavage came to 0.41.

Regarding U43C U108C U122C G137C, the self-cleavage came out at 0.01.

For the variant A47G A63G A82G A140G, the self-cleavage is 0.43.

With U49C A52U A60U A89G A91G A95U, the self-cleavage stood at 1.15.

Consider C45G A118G A140G, for which the self-cleavage came out at 1.28.

On to C45U A62G U87A, for which the self-cleavage was 1.36.

As to A47G U49A A51G A67U A117G, the self-cleavage is 1.78.

Regarding U49C U102C A118U A126G, the self-cleavage turned out to be 0.8.

Consider U49C A60G C88U A111G U122A, for which the self-cleavage worked out at 0.

Consider U49A A110G A111G, for which the self-cleavage turned out to be 0.02.

Consider U49C A78U A117G, for which the self-cleavage amounted to 0.24.

Take U49C A59G A66G U87C: the self-cleavage worked out at 0.92.

On to U49C A64G A129G U132C, for which the self-cleavage is 0.6.

On to U49C A51G G65A A90G A96G A134G, for which the self-cleavage came out at 0.8.

As for U49G A60G U108C, the self-cleavage was determined as 0.05.

Turning to U49C A125U A126G, the self-cleavage worked out at 0.81.

Turning to U49C A69G U108C, the self-cleavage is 0.01.

Take U49C A89G A96U: the self-cleavage is 1.51.

With U49C A111G A114U, the self-cleavage came to 0.02.

With A47U A90G A117G U131C, the self-cleavage came to 0.38.

With A47G G106A U131C, the self-cleavage amounted to 0.

Take U43C U49C A56G A60G A95G A117G A129G U131A: the self-cleavage was 0.43.

With A47G A78U A111G, the self-cleavage was determined as 0.01.

Regarding U49C A62G A110G, the self-cleavage turned out to be 0.07.

Consider U43C A78G G79C A94G A111G U139C, for which the self-cleavage turned out to be 0.03.

U49C A59U U72A C101U A110G: the self-cleavage is 0.01.

As for A47G A68U U72A A95G A116G U122C, the self-cleavage was 0.05.

As to U49A A55G A66G U72C A96G A116U, the self-cleavage was determined as 0.01.

Regarding A47U G104U A114G, the self-cleavage is 0.02.

On to A47G A67C A82U A125G A134G, for which the self-cleavage was found to be 0.04.

In the case of U43C A94G A118G, the self-cleavage came to 1.37.

As for U49C A67G A68G, the self-cleavage was determined as 0.57.

With U49A A66G A111G A118U, the self-cleavage is 0.

As to U49C A60G U72C A90U G93A, the self-cleavage was 0.21.

As to U43G U103C A129G, the self-cleavage was determined as 1.46.

For A47G G74A U87A, the self-cleavage stood at 0.14.

Take A47G A98U A134G: the self-cleavage is 1.98.

Turning to A47G A63G G74U A86G U100C, the self-cleavage is 0.17.

With U43C A86U U108C, the self-cleavage was 0.02.

For U43C A110C A118G, the self-cleavage came out at 0.32.

For the variant A47G A64U C113U U124G, the self-cleavage turned out to be 0.08.

Turning to A47C U122A U132C, the self-cleavage was 1.31.

In the case of U49A A95G U108C, the self-cleavage turned out to be 0.01.

With U49C A55G A56G, the self-cleavage was found to be 1.37.

For the variant U49G A95G U133C, the self-cleavage was 1.43.

On to A47G A90G A118G U130C, for which the self-cleavage was 0.06.

In the case of C45A U87C A111G A125U A140G, the self-cleavage was found to be 0.01.

For U49A G53U A78G U102C, the self-cleavage was 0.28.

Consider U43C U100C G115U, for which the self-cleavage is 0.13.

Consider U49C A78G A111U U130G, for which the self-cleavage was determined as 0.02.

In the case of U43C A110U U124C, the self-cleavage was determined as 0.62.

Turning to A47U A69G A98G, the self-cleavage came out at 0.27.

As for A47G A60G G73A A126G, the self-cleavage amounted to 0.03.

As for U49A A68G U122C A125G, the self-cleavage is 0.27.

Turning to A47G A92G U120C, the self-cleavage came to 0.19.

In the case of A47G A55G A66G, the self-cleavage was 0.47.

Regarding G48U A56G A78G, the self-cleavage is 0.04.

As for A47G A54G U100A A125G, the self-cleavage stood at 0.

As for A47C U49C A60G G83A A90U, the self-cleavage came to 1.51.

With A47G A117G U120C, the self-cleavage was 0.24.

With G44A U108C U131C, the self-cleavage worked out at 0.

Regarding U49A A67G G73U U122C, the self-cleavage was determined as 0.11.

As for U49G A68G A90G A140G, the self-cleavage came out at 1.21.

Take A47C A86G A90G: the self-cleavage stood at 0.59.

As for U49C U87A A111G A114G, the self-cleavage worked out at 0.02.

Take U49C A54G A89G U103C: the self-cleavage turned out to be 0.57.

On to U49C A67U A125G, for which the self-cleavage came out at 0.74.

For A47G A54G U132C, the self-cleavage came out at 1.42.

Turning to U49C A67G A68G U70C U103A A135G, the self-cleavage turned out to be 0.09.

Regarding A47U G74U A94G U100C, the self-cleavage turned out to be 0.23.

Turning to A47G U130G U131C, the self-cleavage amounted to 0.26.

For the variant A47G A52G A66G, the self-cleavage came to 1.35.

Take A47U A110G U122C: the self-cleavage came to 0.1.

Turning to U43C U103A U132C, the self-cleavage is 0.79.

For the variant A47U A89U U132C, the self-cleavage worked out at 1.22.

With U43C U70C A125G, the self-cleavage was determined as 0.14.

Turning to U49A G73A C109U U122C U132C, the self-cleavage amounted to 0.03.

With A47G A51G A94G A95G, the self-cleavage came out at 0.53.

U49A U72G A86G A95G A118U: the self-cleavage is 0.02.

U49C A54U U133G: the self-cleavage worked out at 1.57.

A47U A52G A67G U130C: the self-cleavage is 0.

For the variant A47G A54G A59U A82G A116U, the self-cleavage was determined as 0.04.

In the case of U49C A68G U70C A92G A94G U124G, the self-cleavage stood at 0.12.

As for A47G A56G A62G A90G A91G U100A A134G, the self-cleavage is 0.1.

As to A47U A54G A67G, the self-cleavage was found to be 0.17.

For the variant A47U A66G U70C A90G, the self-cleavage stood at 0.39.

In the case of C46U A47U A90G U130C, the self-cleavage was 0.6.

As for A47G U49C A66G, the self-cleavage was 1.32.

Regarding U43C A91G A140G, the self-cleavage was 1.55.

Turning to C46U A52G U87C, the self-cleavage stood at 1.6.

On to U49C A69U A135G, for which the self-cleavage was 1.51.

For the variant A47U A59G U122C, the self-cleavage stood at 0.65.

Take U49A C61U A117G U133A: the self-cleavage is 1.76.

Regarding U43C A129U U132A, the self-cleavage is 1.09.

In the case of A47U A51G A111G, the self-cleavage is 0.01.

With U49C A64G A92U A117G, the self-cleavage amounted to 1.9.

In the case of A47U A51U A69C A78G A129G, the self-cleavage stood at 0.08.

In the case of A47G A51G A60G, the self-cleavage was 1.03.

As to U49A U72A A86C, the self-cleavage was 0.28.

As to U49C A60U A95G A96G, the self-cleavage is 2.09.

For U49C A66G U120A U139A, the self-cleavage is 2.29.

Turning to A47G A82U U102C, the self-cleavage turned out to be 0.3.

Regarding A47G U49C A54C A59G A68G A126G, the self-cleavage is 0.17.

For U49C A86U A110G A135G, the self-cleavage was found to be 0.08.

As to G48U A90G U102C A110G, the self-cleavage came out at 0.13.

U43C U49C U122A: the self-cleavage was 1.33.

For U43C G106A A126U U132C, the self-cleavage amounted to 0.01.

With U49C A55G A59G A118G, the self-cleavage stood at 1.1.

For the variant A47G G75U U139C, the self-cleavage was 0.12.

As for G48A A60G U102C A118G, the self-cleavage turned out to be 1.7.

For the variant A47U A52G A54G A56G U108A, the self-cleavage was found to be 0.1.

Regarding U43C C45G A125G A135U, the self-cleavage came out at 0.27.

U49C A62G C85G A92G: the self-cleavage was found to be 0.46.

With U49A U87A A98G U108C A118U, the self-cleavage was 0.

As to A47G U72C A90G A94G, the self-cleavage was 0.09.

Regarding U43C A95G U131G, the self-cleavage was 2.13.

As for A47U A89G U127C, the self-cleavage is 0.28.

Take A47U A54G A66U A98G: the self-cleavage came out at 0.05.

As to A47U A63G A111G, the self-cleavage is 0.01.

For the variant C46U A52G A89G, the self-cleavage worked out at 0.62.

Take C46U U87C A92G U130C: the self-cleavage was 0.57.

Regarding A47G A56G A59G A63G, the self-cleavage came out at 0.76.

As to U49A G74A A91G, the self-cleavage came to 0.16.

Consider A47G U49C A55G, for which the self-cleavage came out at 1.49.

Regarding U43C C46U U122C, the self-cleavage came out at 0.68.

As for U43C U108C A117G, the self-cleavage came out at 0.

Regarding A47G A78G A94G, the self-cleavage was determined as 0.16.

In the case of U49C A60G U103C, the self-cleavage was determined as 0.16.

As for U49C U70C A89G, the self-cleavage stood at 0.73.

Turning to U49C A78U A91G, the self-cleavage came to 0.07.

For U49C A66G A117G U131C, the self-cleavage was 0.93.

For the variant U49C A55G U102C A116G A129G, the self-cleavage stood at 0.66.

Values taken from the RNAGym collection of RNA variant scans (doi:10.7554/elife.90254).
